# From article PMC4336329 (PLoS ONE, 2015)
# Out of some 310,000 compounds screened, about 14,000 (4.5%) showed an effect of 50% or more. Effects have a minus sign here. The list shows a part of the results.
# Biological target: human ether-à-go-go-related gene (hERG) potassium channel (human, UniProt Q12809)
# Experiment: primary screen, population patch clamp on CHO cells stably expressing hERG
# 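Also: peak tail current of the secondary pulse compared with the same well before compound.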
# Sequence of human ether-à-go-go-related gene (hERG) potassium channel (Q12809 whole entry, looked up): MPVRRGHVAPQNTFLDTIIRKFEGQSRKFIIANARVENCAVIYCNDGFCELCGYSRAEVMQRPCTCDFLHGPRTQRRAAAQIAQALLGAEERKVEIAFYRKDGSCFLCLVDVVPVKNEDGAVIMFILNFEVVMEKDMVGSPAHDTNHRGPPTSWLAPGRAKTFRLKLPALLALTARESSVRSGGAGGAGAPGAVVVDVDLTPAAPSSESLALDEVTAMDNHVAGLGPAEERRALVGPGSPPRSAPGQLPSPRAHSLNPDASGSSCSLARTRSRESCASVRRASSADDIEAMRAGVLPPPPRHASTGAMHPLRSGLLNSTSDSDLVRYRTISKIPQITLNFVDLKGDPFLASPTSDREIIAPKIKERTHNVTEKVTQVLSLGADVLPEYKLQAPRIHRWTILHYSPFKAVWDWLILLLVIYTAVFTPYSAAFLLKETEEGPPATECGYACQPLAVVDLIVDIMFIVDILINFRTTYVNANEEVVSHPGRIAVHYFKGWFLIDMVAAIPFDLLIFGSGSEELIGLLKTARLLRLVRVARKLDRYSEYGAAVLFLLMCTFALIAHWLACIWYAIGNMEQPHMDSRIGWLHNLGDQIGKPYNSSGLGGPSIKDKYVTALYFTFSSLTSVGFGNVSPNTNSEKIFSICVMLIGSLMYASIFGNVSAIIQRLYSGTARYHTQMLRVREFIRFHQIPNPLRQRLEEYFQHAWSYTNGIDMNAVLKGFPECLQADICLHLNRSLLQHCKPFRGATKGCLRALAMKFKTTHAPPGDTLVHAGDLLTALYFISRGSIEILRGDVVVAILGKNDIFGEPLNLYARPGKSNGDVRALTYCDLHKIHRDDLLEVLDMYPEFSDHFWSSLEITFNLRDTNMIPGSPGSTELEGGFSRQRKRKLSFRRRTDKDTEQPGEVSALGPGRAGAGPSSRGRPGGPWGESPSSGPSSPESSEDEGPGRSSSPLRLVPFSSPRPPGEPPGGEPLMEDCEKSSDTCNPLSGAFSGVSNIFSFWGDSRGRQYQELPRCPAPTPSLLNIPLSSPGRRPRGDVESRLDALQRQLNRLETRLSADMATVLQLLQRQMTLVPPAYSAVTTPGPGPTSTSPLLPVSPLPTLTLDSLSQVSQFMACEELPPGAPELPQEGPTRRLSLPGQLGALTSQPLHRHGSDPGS
row,Compound,"hERG current change (%, negative = inhibition) at 10uM [%]"
1,COc1cc(CN2CCC(CO)(CCOc3ccccc3)CC2)cc(OC)c1,-67.3
2,Cc1cc(S(=O)(=O)NCCN2CCOCC2)ccc1Cl,21.3
3,CC(=O)c1ccc(OC(=O)c2ccc(-n3nc(C)cc3C)cc2)cc1,-28.1
4,Cc1ccccc1NC(=O)NC(C)(C)CC(C)(C)C,25.4
5,Cc1c(C(=O)N2CCN(c3ncccn3)CC2)oc2c(Cl)cccc12,-20.2
6,COC(=O)c1ccc2c(=O)n(CCN3CCOCC3)c(SCC(=O)NCc3ccccc3)nc2c1,-46.1
7,Cc1ccc2[nH]c(C)c(/C=C/c3cc[n+](C)cc3)c2c1.[I-],12.4
8,Nc1nnc(SCC(=O)OCC(=O)Nc2ccccc2F)s1,5.55
9,CCC(C)NC(=O)CSc1nnc(-c2c[nH]c3ccccc23)o1 (stereo not drawn),12.8
10,NC(=O)c1ccc(N=Nc2c(O)[nH]c(=O)[nH]c2=O)cc1,-10.8
11,Cc1cc(=O)[nH]c2c1c(C)nn2C(C)(C)C,11.2
12,C#CC(CC)(CC)NC(=O)Nc1ccccc1C(=O)OC,-11
13,Cc1cc(NCCN2CCOCC2)n2ncc(-c3ccccc3)c2n1,-11.7
14,COc1ccc(Cn2nnnc2C(c2ccccc2Cl)N2CCC(C(N)=O)CC2)cc1 (stereo not drawn),-10.1
15,COc1ccc(OCC(O)CNC(=O)c2ccccc2)cc1 (stereo not drawn),9.92
16,CC(=O)Nc1ccc(NC(=O)C2CCCN2C(=O)Nc2ccccc2[N+](=O)[O-])cc1 (stereo not drawn),-4.34
17,COCC(=O)NC1CCN(S(=O)(=O)c2ccc(C(=O)O)cc2)CC1,4.32
18,CC(=O)Nc1sc2c(c1C(N)=O)CCC2,7.4
19,O=C(C1CCN(C2CC(=O)N(Cc3ccccc3)C2=O)CC1)N1CCCCCC1 (stereo not drawn),-6.53
20,O=C(NCc1ccccc1Cl)C1CCCN(S(=O)(=O)c2cccc3nonc23)C1 (stereo not drawn),7.19
21,CCSC1=NC(C)(C)C=C(C)N1,0.798
22,COCCN(CCOC)C(=S)Nc1ccccc1Cl,6.62
23,CCOC(=O)c1cnc(N2CCN(C(=O)OCC)CC2)[nH]c1=O,27.3
24,C=CCC1CCCC(=O)N2CC[C@H](O)C12 (stereo partly drawn),4.45
25,Cc1cc(C(=O)OCC(=O)Nc2cccc(S(=O)(=O)N(C)C)c2)c(C)o1,5.71
26,Nc1cccnc1Oc1ccccc1F,0.615
27,COc1ccc(S(=O)(=O)N2CCOCC2)cc1NC(=O)CSc1nnc(C2CC2)n1C1CC1,2.57
